Experimental data: ChEMBL document CHEMBL4888484, “Replenishing the malaria drug discovery pipeline: Screening and hit evaluation of the MMV Hit Generation Library 1 (HGL1) against asexual blood stage Plasmodium falciparum ,using a nano luciferase reporter read-out” (2022)
The whole screen tested about 150,000 compounds, of which about 540 (0.36%) showed an effect of 50% or more. The list shows a part of the results.

Test system: Plasmodium falciparum
Assay: Primary screen in NF54 nanoGlo assay, in single point, at 2uM, 72h; a lower Z score goes with more inhibition
Type: functional, Erythrocyte
Conditions: timepoint 72 hour

SMILES | % Inhibition [%] | Z score
COc1nccc(N[C@H]2CCOC[C@@H]2OCC2CC2)c1C#N | -1 | 0.16
Cc1cccc(C)c1OCc1cc(C(=O)N[C@H]2CC[C@H](O)CC2)no1 | -4 | 0.8
O=C(Nc1nc2c(s1)CCCC2)c1cc(-n2ccnc2)ccn1 | -10 | 1.61
CN1CC[C@H]2CC(=O)Nc3cc(C(F)(F)F)ccc3OCC[C@H]2C1 | 7 | -0.86
Cc1nc(C)c(C(=O)N2CC[C@H](CCOc3ccccc3)C2)s1 | 2 | -0.4
CC(C)C[C@@H](CN(C)C)NC(=O)c1snnc1C1CC1 | -9 | 1.74
Cc1ccc([C@H](CNC(=O)COc2ccc(Cl)cc2)N2CCC(C)CC2)o1 | 2 | -0.39
O=c1nc2n(c3ncccc13)CCCCC2 | 3 | -0.42
COc1cccc2cc(C(=O)N3CCC(COCc4ccccc4)CC3)oc12 | -8 | 1.11
O=C(Cc1ccsc1)Nc1nncs1 | -11 | 1.18
C[C@]12C(=O)N(Cc3ccncc3)CC(=O)N1CCc1c2[nH]c2ccccc12 | -7 | 0.86
C[C@@H](c1ccccc1)N(C)C(=O)NCCNC(=O)c1ccn[nH]1 | -4 | 0.49
CN(CCc1nccs1)S(=O)(=O)c1cnn(C)c1 | -8 | 0.97
O=C(c1ccc(N2CCCN(Cc3ccc(Cl)cc3)C2=O)cc1)N1CCCC1 | -4 | 0.68
CN(C)C1(CNC(=O)COc2cccc(C(N)=O)c2)CCCCCC1 | -34 | 3.95
Cn1cc([C@H]2NC(=O)CN2Cc2ccccc2)c(=O)n(C)c1=O | 0 | 0.02
CC(C)N(C)C(=O)c1ccc(Cl)c(NCCCO)c1 | -8 | 0.76
Cc1cc(NC(=O)CCn2ncc3cn(-c4ccccc4)nc3c2=O)no1 | -23 | 3.2
CCn1nccc1C(=O)N1Cc2cc(CN3CCCC3)ccc2OC[C@@H]1C | -1 | 0.22
COc1ccccc1CC(=O)Nc1cncnc1 | -21 | 1.87
CC(C)c1nc(CCNc2cncc(C(=O)N(C)C)n2)no1 | -7 | 1.22
CC(C)OCCNC(=O)[C@@H]1CC[C@H](NC(=O)c2csc3c2CCCC3)C1 | -19 | 2.4

SMILES | % Inhibition [%] | Z score
C1CC[C@H](CNC2CCC3(CC2)CC3)OC1 | 1 | -0.1
O=C(N[C@@H](CN1C(=O)COC1=O)c1ccccc1)c1ccsc1 | -12 | 1.92
Cc1ccc(-c2nc(-c3ccc(N4CCOCC4)cc3)no2)c(C)c1 | -2 | 0.29
O=C(NCCn1cccn1)[C@H]1[C@@H]2CN(Cc3ccc4c(c3)OCCO4)C[C@@H]21 | -9 | 1.83
O=S(=O)(NC[C@@]1(COc2cnccn2)C[C@@H](O)[C@@H](O)C1)c1ccc(F)cc1 | 1 | -0.19
COCC[C@H]1COCCN1C(=O)Cc1ccc2[nH]c(=O)[nH]c2c1 | -2 | 0.35
Cc1ccc(CN2CCC(CNC(=O)[C@H](C)n3c4ccccc4c4cnn(C)c(=O)c43)CC2)cc1 | -18 | 1.77
Cc1c(C(=O)O)nnn1-c1ccc2c(c1)CCC2 | -12 | 1.33
O=C(CC[C@H]1CCCO1)N1CC=C(c2c[nH]c3ccccc23)CC1 | -9 | 1.28
C[C@H]1CN(C(=O)c2ccc3occc3c2)C[C@]1(O)C1CC1 | -23 | 2.43
COC(=O)c1n[nH]c2c1CN(C(=O)c1cc(Cl)cn1C)CC2 | 6 | -1.02
C[C@@H](CCO)NCc1ccc(CN(C)C)c2c1OC(F)(F)O2 | 2 | -0.43
CCC(=O)N1CCCC[C@H]1c1nnc2n1CCN(S(=O)(=O)c1c(C)noc1C)C2 | -3 | 0.48
CN(Cc1nnc2n1CCC2)C(=O)CCOc1ccc(Br)cc1 | -8 | 1.55
O=C(Cc1cccs1)N1CCN(c2nnc3ccccn23)CC1 | -26 | 4.38
CCOCCN1CCN(c2cc(N3CCN(CCOCC)C(C)C3)ncn2)CC1C (stereo not given) | -9 | 0.85
O=C(N1CCN(C2CC2)c2cc(Cl)ccc21)C1(n2cnnn2)CCOCC1 | 0 | -0.02
CN(C)CCN(C(=O)c1cccc(-n2cnnn2)c1)C1CCCC1 | -5 | 0.77
Cc1ccc(CCNC(=O)c2ccncc2)o1 | -11 | 1.45
COC1(C)CN(c2nc3c(N4CC(C)(OC)C4)ncnc3s2)C1 | 5 | -0.96
CCCC(=O)Nc1ccc(CN=C(N)NCCc2ccccn2)cc1 | -2 | 0.25
COC(C)c1nc(CN(C)C2Cc3ccccc3C2O)cs1 (stereo not given) | 2 | -0.32

SMILES | % Inhibition [%] | Z score
COCCc1noc([C@@H]2CCCN2CC(=O)N2CCCc3cc(C)ccc32)n1 | 0 | -0.03
CC1CCN(CC(=O)Nc2cccc3nonc23)CC1 | -1 | 0.08
Cc1nnc(-c2ccc(S(=O)(=O)N3CCc4ccccc4C3)s2)o1 | -15 | 2.93
Cc1cc(S(=O)(=O)N2CCOC[C@@]23CCOC3)ccc1C#N | 4 | -0.54
CCOc1ccc(NC(=O)N[C@H]2CCN(c3ccc(C(F)(F)F)cn3)C2)cc1 | -6 | 1.13
CCS(=O)(=O)CC(C)NC(C)c1c(F)cccc1F (stereo not given) | -16 | 2.96
CCOc1cccc(-c2cc(-c3c(C)nn(C)c3C)nc(CC(=O)NC)n2)c1 | -1 | 0.12
Cc1csc(CNC(=O)[C@H]2CCC(=O)N(C3CCCCCC3)C2)n1 | 1 | -0.17
CCc1csc(NC(=O)c2ccc(-c3ccco3)[nH]c2=O)n1 | 9 | -1.16
CCC(=O)N1c2ccc(S(=O)(=O)N3CCCCC3)cc2C[C@H]1C(=O)NC1CCCCCC1 | -7 | 0.9
Cc1ccc2[nH]c3c(c2c1)C[C@@H](N1C(=O)CN(CC(C)C)C1=O)CC3 | -3 | 0.39
C[C@H]1CC(=O)N(CCC2CCCCC2)c2ccccc2N1 | -1 | 0.19
CC(=O)c1cccc(NC(=O)N2CCC3(CCC3)C2)c1 | -6 | 1.19
CC1NC(=O)N(Cc2ccccn2)C(=O)C1C (stereo not given) | -4 | 0.6
CC(C)NC(=O)N[C@@H]1CC[C@H]2CCOc3ccccc3C(=O)N3CCN(Cc4cccc(Cl)c4)C[C@H]3C(=O)NC[C@H]1O2 | 27 | -3.1
CN(Cc1cccc(OC(F)F)c1)Cc1nnc2n1CCNC2=O | 0 | 0.03
Cc1c(C(=O)NCc2cccnc2N2CCN(C)CC2)n(C)c2ccccc12 | 5 | -0.98
COc1ccc(C(=O)N(Cc2ccccc2)Cc2cc(NS(=O)(=O)c3ccc(OC)cc3)ccc2N(C)C)cc1 | -7 | 1.43
CCC[C@H](C)NS(=O)(=O)Cc1noc(C2CC2)n1 | -10 | 1.9
CC[C@H]1CN(C(=O)NCCc2csc(C)n2)CCO1 | -8 | 0.96
Cc1cc(NC(=O)NC[C@@H]2Cc3ccccc3CO2)nn1C(C)C1CC1 (stereo not given in full) | 1 | -0.11
CCCn1c(C)nnc1CN[C@@H](C)c1c(F)cccc1Cl | -16 | 2.42

SMILES | % Inhibition [%] | Z score
Cc1nc(C(=O)NCc2ccco2)co1 | -5 | 0.83
CN(CC(F)F)C(=O)Nc1nncs1 | -13 | 1.8
Cn1ccc(NC(=O)[C@@]2(C)CC2(Cl)Cl)n1 | -10 | 1.79
COCC(=O)N1CC(C(=O)NCCN2CCCC2)CCC1c1ccc(F)cc1 (stereo not given) | -3 | 0.42
Cc1cc(C(=O)N(CC(=O)N2CCn3cccc3[C@H]2c2ccccc2F)C(C)(C)C)ccc1F | -14 | 1.31
CCN(C(=O)c1cccc(=O)n1C)[C@H]1CCN(Cc2ccccc2)C1 | -9 | 1.48
Cn1cccc1CN1CCC(CC2CC2)(NS(C)(=O)=O)CC1 | -12 | 2.27
Cc1cc(OCc2csc([C@@H]3CCCO3)n2)nn1C | -11 | 1.46
O=C(Nc1ccc(S(=O)(=O)Nc2nccs2)cc1)[C@H]1CCCN(c2cc(C3CC3)ncn2)C1 | 11 | -2.06
Cc1nnsc1CN(C)C(=O)CCN1CCCCO1 | -14 | 2.73
COc1ccccc1-c1nn(Cc2ccccc2)cc1[C@@H]1NC(=O)c2ccccc2N1 | -35 | 4.14
CC(=O)N[C@H](CC1CCC1)C(=O)NCC(C)(C)c1ncccc1C | -12 | 1.48
Cc1csc(CNC(=O)Cc2csc(C(C)C)n2)n1 | -18 | 2.47
CCCOC[C@H]1CCN(Cc2noc(CC(C)C)n2)C1 | -5 | 0.49
Cc1cccnc1-n1nc(-c2ccccc2)nc1Cn1cc(C)c(=O)[nH]c1=O | -10 | 1.41
Cn1cccc1-c1n[nH]c(C2CCCCC2)n1 | -12 | 1.78
O=C(Nc1cc(Cl)cc(Cl)c1)C(=O)NC1CCCC1 | 6 | -0.72
O=c1[nH]c(=O)n(-c2ncnc3c2cnn3-c2ccccc2)cc1Cl | 38 | -5.17
CCc1nc(NCc2nccn2CC)c2ccsc2n1 | 4 | -0.68
